# Where “and” joins values, the source holds several entries; their conditions need not be identical. Equal entries are not always repeated. The shares of active, inactive and inconclusive entries below differ from those in the screen. For some of these results: A potency beside an inconclusive call is a rough fit, not a confirmed value. Calls of active or inactive are those of the source. Unless noted, the call rests on the fitted dose curve.
# Columns and labels:
# [1] = target: Bile acid receptor (Homo sapiens) (UniProt Q96RI1); assay: qHTS assay to identify small molecule agonists of the farnesoid-X-receptor (FXR) signaling pathway (AID 743220; active means well fitted activation curve with a large enough effect in the signal ratio in the repeat runs, not every such curve was filed as active; inconclusive means weak or mixed curves, or effect the other way; the % refers to the signal ratio; further: on the % scale 0 is the no-effect control and ±100 the full control effect); conditions: HEK293T FXR-UAS-bla, beta-lactamase FRET ratio, 16 h
# UniProt Q96RI1, sequence (Q96RI1 whole entry, looked up): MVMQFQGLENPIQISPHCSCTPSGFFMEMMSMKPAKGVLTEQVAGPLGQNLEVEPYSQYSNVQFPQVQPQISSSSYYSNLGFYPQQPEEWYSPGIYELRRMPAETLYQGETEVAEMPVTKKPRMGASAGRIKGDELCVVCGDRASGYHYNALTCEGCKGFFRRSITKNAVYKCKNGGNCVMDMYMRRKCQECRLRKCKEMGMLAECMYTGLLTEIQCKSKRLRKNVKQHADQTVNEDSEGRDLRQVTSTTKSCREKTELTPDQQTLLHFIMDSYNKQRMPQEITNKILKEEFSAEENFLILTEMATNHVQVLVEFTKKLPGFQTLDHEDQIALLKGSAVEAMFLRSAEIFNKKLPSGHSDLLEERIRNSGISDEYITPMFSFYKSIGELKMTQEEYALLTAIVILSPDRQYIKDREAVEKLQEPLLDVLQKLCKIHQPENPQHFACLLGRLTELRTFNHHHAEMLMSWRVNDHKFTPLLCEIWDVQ
# Outline: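 FXR-UAS-bla HEK 293T cells carrying a UAS-driven beta-lactamase reporter were plated for 5 h at 37C/5% CO2, then exposed to DMSO-dissolved Tox21 10K compounds for 16 h at 37C. A LiveBLAzer B/G FRET substrate was loaded for 2 h at room temperature before fluorescence reading.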
# [2] = target: Peroxisome proliferator-activated receptor delta (Homo sapiens) (UniProt Q03181); assay: qHTS assay to identify small molecule agonists of the peroxisome proliferator-activated receptor delta (PPARd) signaling pathway (AID 743212); conditions: HEK293H PPARd-UAS-bla, beta-lactamase FRET ratio, 17 h; activation: at 62.6 µM (top of the series) unless noted;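 further: HEK293H cells with PPARd UAS beta-lactamase reporter GeneBLAzer system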; further: potency means the concentration at half of the fitted maximal effect; on activation: on the % scale 0 is the no-effect control and ±100 the full control effect
# UniProt Q03181, sequence (Q03181 whole entry, looked up): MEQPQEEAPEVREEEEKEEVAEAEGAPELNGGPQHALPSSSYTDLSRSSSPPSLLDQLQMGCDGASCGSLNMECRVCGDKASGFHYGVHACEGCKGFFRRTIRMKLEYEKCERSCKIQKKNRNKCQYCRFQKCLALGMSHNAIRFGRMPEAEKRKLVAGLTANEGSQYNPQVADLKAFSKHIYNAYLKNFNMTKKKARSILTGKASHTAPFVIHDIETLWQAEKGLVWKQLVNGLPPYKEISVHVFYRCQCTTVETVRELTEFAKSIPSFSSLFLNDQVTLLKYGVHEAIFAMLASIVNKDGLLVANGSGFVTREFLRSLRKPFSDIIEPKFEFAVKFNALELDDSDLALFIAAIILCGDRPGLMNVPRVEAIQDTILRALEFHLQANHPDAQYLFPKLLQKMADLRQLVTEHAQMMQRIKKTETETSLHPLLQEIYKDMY
# Outline: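 Beta-lactamase reporter readout: a ratiometric FRET signal from the LiveBLAzer substrate after 2 h at room temperature. Compound exposure at 37 °C in PPARδ-bla HEK293H cells driven by an upstream activator sequence.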
# [3] = qHTS assay to identify small molecule antagonists of the peroxisome proliferator-activated receptor delta (PPARd) signaling pathway - cell viability counter screen (AID 743213; active means well fitted curve in the direction sought with a large enough effect in the repeat runs; inconclusive means weak or mixed curves; inactive means no such curve, though single readings can be large; an effect the other way counts as inactive or inconclusive; further: nearly all actives have a fitted effect of over 50% in size; further: potency means the concentration at half of the fitted maximal effect); conditions: PPARd-bla HEK293H viability, CellTiter-Glo luminescence, 17 h; viability change, negative = cytotoxic: at 62 µM (top of the series) unless noted
# Outline: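 Viability counter-screen, qHTS format: PPARd-bla HEK293H, L165041 300 nM final, 17 h compound exposure at 37 C, CellTiter-Glo luminescence after 30 min RT.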
# [4] = target: Peroxisome proliferator-activated receptor delta (Homo sapiens) (UniProt Q03181); assay: qHTS assay to identify small molecule antagonists of the peroxisome proliferator-activated receptor delta (PPARd) signaling pathway (AID 743215; active means well fitted inhibition curve with a large enough effect in the signal ratio in the repeat runs, not every such curve was filed as active; inconclusive means weak or mixed curves, or effect the other way; inactive means no such curve, though single readings can be large or run the other way; the % refers to the signal ratio;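 further: cells stimulated with agonist L165041 at 300 nM final during compound exposure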; further: potency means the concentration at half of the fitted maximal effect; on ratio activity, negative = inhibition: on the % scale 0 is the no-effect control and ±100 the full control effect); conditions: HEK293H PPARd-UAS-bla, beta-lactamase FRET ratio, antagonist, 17 h; ratio activity, negative = inhibition: at 62 µM (top of the series) unless noted
# Outline: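 Here, a reporter line (HEK293H, beta-lactamase under a UAS) measures PPARd signaling. Compounds are tested against agonist L165041 at 300 nM final concentration over 17 h at 37 C, with fluorescence read after substrate.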
# [5] = target: Vitamin D3 receptor (Homo sapiens) (UniProt P11473); assay: qHTS assay to identify small molecule antagonists of the vitamin D receptor (VDR) signaling pathway (AID 743223; active means well fitted inhibition curve with a large enough effect in the signal ratio in the repeat runs, not every such curve was filed as active; inconclusive means weak or mixed curves, or effect the other way; inactive means no such curve, though single readings can be large or run the other way; the % refers to the signal ratio; further: potency means the concentration at half of the fitted maximal effect; on activity change, negative = inhibition: on the % scale 0 is the no-effect control and ±100 the full control effect); conditions: VDR-UAS-bla HEK293T, beta-lactamase FRET ratio, 16 h; activity change, negative = inhibition: at 61 µM (top of the series) unless noted
# UniProt P11473, sequence (P11473 whole entry, looked up): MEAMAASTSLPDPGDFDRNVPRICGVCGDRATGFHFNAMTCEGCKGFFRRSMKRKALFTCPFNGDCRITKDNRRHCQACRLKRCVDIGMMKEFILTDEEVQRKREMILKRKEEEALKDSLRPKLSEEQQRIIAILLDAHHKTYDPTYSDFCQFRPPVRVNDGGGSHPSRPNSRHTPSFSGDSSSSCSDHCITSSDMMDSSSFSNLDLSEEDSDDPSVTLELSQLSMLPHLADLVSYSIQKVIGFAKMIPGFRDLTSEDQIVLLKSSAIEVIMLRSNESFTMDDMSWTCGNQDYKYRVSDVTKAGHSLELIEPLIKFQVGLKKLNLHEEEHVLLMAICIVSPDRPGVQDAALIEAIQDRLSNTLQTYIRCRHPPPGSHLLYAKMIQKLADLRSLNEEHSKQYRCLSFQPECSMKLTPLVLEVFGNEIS
# Outline: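 Beta-lactamase activity in VDR-bla cells is measured by FRET substrate fluorescence (2 h, room temperature) after cells spend 16 h at 37C with test compound and 3 nM final 1alpha,25-dihydroxyvitamin D3.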
# [6] = qHTS assay to identify small molecule agonists of the endoplasmic reticulum stress response signaling pathway - cell viability counter screen (AID 1159517); further: nearly all actives have a fitted effect of over 50% in size; further: potency means the concentration at half of the fitted maximal effect
# Outline: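 ESRE-bla HeLa cells (1,500/well) were plated overnight at 37 C and exposed to compounds for 5 hr. After the 2 hr beta-lactamase substrate read, CellTiter-Glo went into the same wells, and luminescence was read after 30 min at room temperature.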
# [7] = qHTS assay to identify small molecule antagonists of the farnesoid-X-receptor (FXR) signaling pathway - cell viability counter screen (AID 743221; active means well fitted cell-killing curve with a large enough effect in the repeat runs, not every such curve was filed as active; inconclusive means weak or mixed curves, or effect the other way; inactive means no such curve, though single readings can be large or run the other way; further: nearly all actives have a fitted effect of over 50% in size; further: potency means the concentration at half of the fitted maximal effect); conditions: FXR-bla HEK293T viability, CellTiter-Glo luminescence, 16 h; activity change, negative = cytotoxicity: at 62.6 µM (top of the series)
# Outline: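 Compound effects on cell number were measured as CellTiter-Glo luminescence in HEK 293T cells expressing FXR-UAS-bla, after 16 h at 37 C with 50 uM CDCA (final).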
# [8] = target: Vitamin D3 receptor (Homo sapiens) (UniProt P11473); assay: qHTS assay to identify small molecule agonists of the vitamin D receptor (VDR) signaling pathway (AID 743222); conditions: HEK293T VDR-UAS-bla, beta-lactamase FRET ratio, 16 h; activation: at 63.5 µM (top of the series) unless noted; further: potency means the concentration at half of the fitted maximal effect
# Outline: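 Tox21 cell reporter format: VDR-bla line, 16 h compound exposure in 5% CO2 at 37C, then fluorescence intensity after 2 h with LiveBLAzer B/G FRET substrate.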
# [9] = target: Bile acid receptor (Homo sapiens) (UniProt Q96RI1); assay: qHTS assay to identify small molecule antagonists of the farnesoid-X-receptor (FXR) signaling pathway (AID 743217; active means well fitted inhibition curve with a large enough effect in the signal ratio in the repeat runs, not every such curve was filed as active; inconclusive means weak or mixed curves, or effect the other way; inactive means no such curve, though single readings can be large or run the other way; the % refers to the signal ratio; further: potency means the concentration at half of the fitted maximal effect); conditions: HEK293T FXR-UAS-bla, beta-lactamase ratio, CDCA-stimulated, 16 h; activity change, negative = inhibition: at 62.6 µM (top of the series) unless noted
# Outline: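 Test compounds are pin-transferred onto FXR-bla HEK 293T cells, then chenodeoxycholic acid is added at 50 uM final. After 16 h at 37 °C, LiveBLAzer B/G substrate is applied for 2 h at room temperature and fluorescence read.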
# [10] = qHTS assay to identify small molecule antagonists of the vitamin D receptor (VDR) signaling pathway - cell viability counter screen (AID 743225; active means well fitted curve in the direction sought with a large enough effect in the repeat runs; inconclusive means weak or mixed curves; inactive means no such curve, though single readings can be large; an effect the other way counts as inactive or inconclusive; further: nearly all actives have a fitted effect of over 50% in size; further: potency means the concentration at half of the fitted maximal effect); conditions: VDR-bla HEK293T viability, CellTiter-Glo luminescence, 16 h; viability change, negative = cytotoxic: at 61 µM (top of the series) unless noted
# Outline: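 In this counter screen, VDR-bla HEK 293T cells receive test compound plus 3 nM final calcitriol for 16 h at 37C. Room-temperature steps of 2 h with the beta-lactamase substrate, then 30 min with CellTiter-Glo, precede the luminescence read.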
# [11] = qHTS assay to identify small molecule agonists of the farnesoid-X-receptor (FXR) signaling pathway - cell viability counter screen (AID 743218; active means well fitted curve in the direction sought with a large enough effect in the repeat runs; inconclusive means weak or mixed curves; inactive means no such curve, though single readings can be large; an effect the other way counts as inactive or inconclusive; further: potency means the concentration at half of the fitted maximal effect; nearly all actives have a fitted effect of over 45% in size); conditions: FXR-bla HEK293T viability, CellTiter-Glo luminescence, 16 h; viability change, negative = cytotoxic: at 62.6 µM (top of the series) unless noted
# Outline: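 Quantitative HTS counter screen measuring ATP-based viability via CellTiter-Glo luminescence in HEK 293T cells carrying a UAS-driven beta-lactamase reporter, after 16 h compound exposure at 37 C.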
# [12] = qHTS assay to identify small molecule agonists of the vitamin D receptor (VDR) signaling pathway - cell viability counter screen (AID 743224; active means well fitted curve in the direction sought with a large enough effect in the repeat runs; inconclusive means weak or mixed curves; inactive means no such curve, though single readings can be large; an effect the other way counts as inactive or inconclusive; further: nearly all actives have a fitted effect of over 50% in size; further: potency means the concentration at half of the fitted maximal effect); conditions: VDR-bla HEK293T viability, CellTiter-Glo luminescence, 16 h; activity change, negative = cytotoxicity: at 62.6 µM (top of the series)
# Outline: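 CellTiter-Glo viability readout on VDR-bla cells, measured after 16 h of compound treatment at 37C in the same wells.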
# [13] = qHTS assay to identify small molecule agonists of the RXR signaling pathway - cell viability counter screen (AID 1159529; active means well fitted curve in the direction sought with a large enough effect in the repeat runs; inconclusive means weak or mixed curves; inactive means no such curve, though single readings can be large; an effect the other way counts as inactive or inconclusive)
# Outline: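 Viability read-out for the RXR-alpha agonist qHTS: luminescent CellTiter-Glo signal after 30 min at RT. HEK 293T bla reporter cells, 2% charcoal-stripped FBS, 16 hr compound incubation; tetraoctyl ammonium bromide as cytotoxic control.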
# [14] = qHTS assay to identify small molecule antagonists of the retinoid acid receptor (RAR) signaling pathway - cell viability counter screen (AID 1159551; active means well fitted curve in the direction sought with a large enough effect in the repeat runs; inconclusive means weak or mixed curves; inactive means no such curve, though single readings can be large; an effect the other way counts as inactive or inconclusive; further: on the % scale 0 is the no-effect control and ±100 the full control effect; nearly all actives have a fitted effect of over 35% in size)
# Outline: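 In this counter screen, the RARE-luciferase line C3RL4 was exposed for 6 h at 37 C and 5% CO2 to compounds with retinol at 1 uM final. Cellular ATP, read by luminescence, served as the viability measure.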
# [15] = activation: at 62.6 µM (top of the series) unless noted
# Tags describe the fitted curve by direction and shape or compound fluorescence and quenching.
structure (smiles),measurement,setting,value
CC(=O)Nc1cccc(N)c1,Potency,[1]; [15],inactive
Oc1ccc(OCc2ccccc2)cc1,activation,[1]; [15],inconclusive: 0.599%
same,activation,[1]; at 62.6 µM (top of the series),inactive: 2.65%
COCCOCCOCCO,activation,[2],inconclusive: 0.451%
O[C@@H]([C@H](O)[C@H](O)CBr)[C@H](O)CBr,Potency,[3],"inconclusive: 48.9 µM [cytotoxic, single point]"
same,Potency,[4],inactive
same,"activity change, negative = inhibition",[5],inconclusive: -5.95%
same,Potency,[6],"inconclusive: 21.8 µM [rising, single point]"
Cc1ccc(C)cc1,Potency,[3],"inconclusive: 0.0155 µM [cytotoxic, full curve, poor fit]"
same,Potency,[4],"inconclusive: 0.437 µM [rising, full curve, poor fit]"
same,Potency,[7],"inconclusive: 21.9 µM [falling, partial curve, poor fit]"
same,activation,[8],inconclusive: -5.08%
same,Potency,[5],"inconclusive: 55.1 µM [activator, single point]"
same,Potency,[6],"inconclusive: 4.37 µM [rising, full curve, poor fit]"
CC(C)(CO)COC(=O)C(C)(C)CO,Potency,[2],inactive
same,"activity change, negative = inhibition",[9],inconclusive: 0.632%
same,Potency,[5],"inconclusive: 61.7 µM [inhibitor, partial curve, poor fit]"
same,Potency,[6],"inconclusive: 61.7 µM [rising, single point]"
CCCC(=O)O[C@]1(C(=O)CC)CC[C@H]2[C@@H]3CCC4=CC(=O)CC[C@]4(C)[C@H]3[C@@H](O)C[C@@]21C,Potency,[2],"inconclusive: 29.8 µM [partial curve, poor fit]"
same,Potency,[9],"inconclusive: 16.8 µM [rising, partial curve, poor fit]"
same,activation,[1]; [15],inconclusive: 0.762%
same,Potency,[8],"inconclusive: 13.3 µM [rising, full curve]"
same,"activity change, negative = inhibition",[5],inconclusive: -11.8%
same,Potency,[10],inactive
same,Potency,[6],inactive
Cc1ccc2c(c1)CCCN2,Potency,[3],"inconclusive: 43.6 µM [cytotoxic, partial curve, poor fit]"
same,Potency,[4],inactive
same,Potency,[11],"inconclusive: 0.977 µM [rising, full curve]"
same,Potency,[10],inactive
same,Potency,[6],"inconclusive: 0.0347 µM [cytotoxic, partial curve, poor fit]"
CC(C)COC(=O)COc1cc(Cl)c(Cl)cc1Cl,Potency,[2],inactive
same,Potency,[6],"inconclusive: 61.5 µM [cytotoxic, single point]"
COc1cnc(NS(=O)(=O)c2ccc(N)cc2)nc1,Potency,[3],inactive
same,Potency,[11],"inconclusive: 0.188 µM [rising, full curve, poor fit]"
same,Potency,[6],inactive
CCCCCCCCCCCCCCCCCC(=O)OCCCCCCCCCCCCCC(C)C,Potency,[2],inactive
same,Potency,[5],inactive
same,Potency,[12],inactive
same,Potency,[6],inactive
O=C(O)CCS,Potency,[5],inactive
same,Potency,[6],"inconclusive: 19.9 µM [rising, single point]"
same,Potency,[13],inactive
COC(C)=O,Potency,[12],inactive
same,Potency,[6],"inconclusive: 62.9 µM [cytotoxic, single point]"
same,Potency,[14],inactive
CCC(C)C=O (stereo unspecified),Potency,[3],"inconclusive: 61.7 µM [cytotoxic, partial curve, poor fit]"
same,Potency,[4],inactive
same,Potency,[7],"inconclusive: 8.71 µM [rising, partial curve, poor fit]"
same,"activity change, negative = inhibition",[5],inconclusive: 20.3% and inconclusive: -2.9%
same,Potency,[6],"inconclusive: 0.49 µM [cytotoxic, single point]"
CS(=O)(=O)c1ccc([C@@H](C[C@H]2CCC(=O)C2)C(=O)Nc2cnccn2)cc1Cl,Potency,[3],"inconclusive: 0.309 µM [rising, full curve, poor fit]"
same,Potency,[4],"inconclusive: 8.71 µM [rising, full curve, poor fit]"
same,"activity change, negative = inhibition",[5],inconclusive: -6.94%
same,Potency,[10],"inconclusive: 27.5 µM [cytotoxic, partial curve, poor fit]"
same,Potency,[6],"inconclusive: 0.49 µM [cytotoxic, full curve, poor fit]"
FC1(F)C(F)(F)C(F)(F)C2(F)C(F)(F)C(F)(F)C(F)(F)C(F)(F)C2(F)C1(F)F (stereo unspecified),Potency,[4],inactive
same,"activity change, negative = inhibition",[5],inconclusive: 24.5%
same,Potency,[6],inactive
same,Potency,[14],inactive
C=CCCCCCCCCCCCCCC,Potency,[2],inactive
same,Potency,[6],inactive
Cc1cc(-c2ccc(N=Nc3cc(S(=O)(=O)O)c4ccccc4c3N)c(C)c2)ccc1N=Nc1cc(S(=O)(=O)O)c2ccccc2c1N,Potency,[3],"inconclusive: 22 µM [cytotoxic, single point]"
same,"ratio activity, negative = inhibition",[4],inconclusive: 2.5% [at 80.4 µM]
same,Potency,[7],inactive
same,"activity change, negative = inhibition",[5],inconclusive: 6.89% [at 78.8 µM]
same,Potency,[12],"inconclusive: 3.11 µM [cytotoxic, full curve]"
same,Potency,[10],"inconclusive: 6.2 µM [cytotoxic, partial curve]"
same,Potency,[6],"inconclusive: 5.52 µM [cytotoxic, single point]"
COCCOCC(OC)OC,Potency,[3],inactive
same,Potency,[4],"inconclusive: 33.5 µM [falling, partial curve, poor fit]"
same,Potency,[6],inactive
Cc1ccc(N(CCO)CCO)cc1,Potency,[2],inactive
same,Potency,[9],inactive
same,Potency,[8],inactive
same,Potency,[5],"inconclusive: 0.138 µM [activator, full curve, poor fit]"
same,Potency,[6],"inconclusive: 0.49 µM [cytotoxic, full curve, poor fit]"
